Some of these densities may be calculated back from excess volumes.
Experiment: xn = mol fraction of the nth substance listed
Details: 101 kPa

C[NH+](C)C.O=S(=O)([N-]S(=O)(=O)C(F)(F)F)C(F)(F)F + N#CCCCC#N
x1 = 0.2167
Details	mass density [kg/m3]
278 K	1222.3
283 K	1217.8
293 K	1208.8
303 K	1199.8
308 K	1195.4
313 K	1191
323 K	1182.1
328 K	1177.7
333 K	1173.3
338 K	1168.9
343 K	1164.5
348 K	1160.1

C[S+](C)C.O=S(=O)([N-]S(=O)(=O)C(F)(F)F)C(F)(F)F + N#CCCCC#N
x1 = 0.2085
Details	mass density [kg/m3]
283 K	1232.5
288 K	1228.1
293 K	1223.7
298 K	1219.3
308 K	1210.6
313 K	1206.3
323 K	1197.7
343 K	1180.3
353 K	1171.7

Reference: a compilation of properties of binary mixtures (doi:10.1021/acs.jced.0c00740)
